Data from paper PMC4336329 (PLoS ONE, 2015).
The whole screen tested about 310,000 compounds, of which about 2,200 (0.71%) showed an effect of 50% or more. Effects have a minus sign here. This is one part of the list.

Molecular target: human ether-à-go-go-related gene (hERG) potassium channel (human, UniProt Q12809)
Assay: primary screen, population patch clamp on CHO cells stably expressing hERG

human ether-à-go-go-related gene (hERG) potassium channel, sequence (Q12809 whole entry, looked up): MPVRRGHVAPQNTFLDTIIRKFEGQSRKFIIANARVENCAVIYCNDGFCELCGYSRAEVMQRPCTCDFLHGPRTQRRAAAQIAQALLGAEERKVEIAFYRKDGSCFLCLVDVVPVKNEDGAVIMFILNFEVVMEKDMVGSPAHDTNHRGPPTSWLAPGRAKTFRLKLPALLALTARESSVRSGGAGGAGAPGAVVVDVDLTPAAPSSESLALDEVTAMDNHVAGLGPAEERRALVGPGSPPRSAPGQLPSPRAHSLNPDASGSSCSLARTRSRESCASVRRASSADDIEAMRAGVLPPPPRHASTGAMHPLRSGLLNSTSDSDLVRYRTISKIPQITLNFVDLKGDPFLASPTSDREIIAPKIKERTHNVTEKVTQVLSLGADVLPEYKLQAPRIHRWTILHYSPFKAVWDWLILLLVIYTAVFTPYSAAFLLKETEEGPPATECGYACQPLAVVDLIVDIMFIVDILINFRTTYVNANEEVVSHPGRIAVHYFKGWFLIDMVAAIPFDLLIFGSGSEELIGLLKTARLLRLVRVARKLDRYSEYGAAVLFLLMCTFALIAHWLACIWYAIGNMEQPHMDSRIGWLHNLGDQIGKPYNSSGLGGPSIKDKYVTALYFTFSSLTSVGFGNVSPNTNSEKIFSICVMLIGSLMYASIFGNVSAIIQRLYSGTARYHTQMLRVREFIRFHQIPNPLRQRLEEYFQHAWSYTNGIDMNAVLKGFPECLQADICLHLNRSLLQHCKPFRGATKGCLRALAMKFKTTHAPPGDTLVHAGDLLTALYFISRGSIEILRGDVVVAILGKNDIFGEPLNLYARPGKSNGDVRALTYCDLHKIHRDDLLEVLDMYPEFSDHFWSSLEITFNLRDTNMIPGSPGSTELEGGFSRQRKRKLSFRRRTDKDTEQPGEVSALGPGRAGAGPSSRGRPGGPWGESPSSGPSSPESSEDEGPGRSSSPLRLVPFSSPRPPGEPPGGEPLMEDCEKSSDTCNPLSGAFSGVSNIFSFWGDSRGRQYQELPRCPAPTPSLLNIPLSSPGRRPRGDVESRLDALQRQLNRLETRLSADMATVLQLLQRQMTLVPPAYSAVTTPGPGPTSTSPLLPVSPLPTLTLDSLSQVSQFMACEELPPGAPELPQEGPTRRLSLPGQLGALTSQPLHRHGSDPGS

SMILES | hERG current change (%, negative = inhibition) at 1uM [%]
CCC1(CC)NC(=O)N(CC(=O)N2CCN(S(=O)(=O)c3cccc(F)c3)CC2)C1=O | 6.92
NC(=O)CSc1nnc(COc2ccc3ccccc3c2)o1 | 17.3
COCCCN1C(=O)C(=O)/C(=C(/O)c2ccc(S(=O)(=O)N3CCCCC3)cc2)C1c1ccc(F)cc1 (centres unmarked) | 11.5
COc1ccc(NS(=O)(=O)c2ccc(NS(=O)(=O)c3cccc(C(=O)O)c3)cc2)cc1 | 4.1
CC1=CC(C)(C)N(C(=O)CN2C(=O)CCC2=O)c2ccc(C)cc21 | 1.14
O=C(c1ccccc1Cl)c1c(O)c2ccccc2oc1=O | 2.85
O=C(COC(=O)c1ccc(Cl)nc1)NCc1cccs1 | -5.65
CCN(CC(=O)NCc1ccc(F)cc1)C(=O)C1CC1C (centres unmarked) | 5.77
O=C(Nc1ccccc1N1CCOCC1)c1ccc(OCc2cscn2)cc1 | 10.8
COCCN(Cc1nc2ccccc2c(=O)[nH]1)C(=O)COc1cccc(C(C)=O)c1 | -0.788
Cn1c(=O)c2c(SCc3cccnc3)nc(C3CC3)nc2n(C)c1=O | 8.33
CC(=O)Nc1ccc(NC(=O)C(C)Oc2ccc(C)nc2[N+](=O)[O-])cc1 (centres unmarked) | 7.08
Cc1cc(C)c2nc(N(CCCN(C)C)C(=O)c3ccc(S(=O)(=O)N4CC(C)OC(C)C4)cc3)sc2c1.Cl (centres unmarked) | -5.85
CCNC(=O)C(=O)Nc1cc2c3c(c1)CCC(=O)N3CCC2 | 20.5
CC(C)c1ccc(NC(=O)CNC(=O)Cn2ccc3ccccc3c2=O)cc1 | 11.7
COc1ccc(-c2cc(C(=O)N3CCCc4ccccc43)no2)cc1OC | 5.3
CC(C)(C)OC(=O)N[C@@H](C(=O)OC(C)(C)C)c1ccc(C(F)(F)F)cc1 | 10.1
COc1cc(C(=O)Nc2ccc3c(c2)C(=O)N(CCC(=O)O)C3=O)cc(OC)c1OC | 3.06
COCCSc1nnc(NC(=O)c2cc(C(=O)OC)cc([N+](=O)[O-])c2)s1 | 9.56
CC(OC(=O)c1cccs1)C(=O)NCc1ccco1 (centres unmarked) | 11.3
O=C(NCCC1=CCCCC1)c1ccc(-n2cncn2)cc1 | 12.6
C=CCN(CC=C)S(=O)(=O)c1ccc(C(=O)Nc2nnc(COC)o2)cc1 | 14.2

SMILES | hERG current change (%, negative = inhibition) at 1uM [%]
O=C1c2ccccc2C(=O)N1CCc1nc(-c2ccncc2)no1 | 4.33
CCc1c(C)nc2ncnn2c1N1CCC(C(=O)NCc2cccc(OC)c2)CC1 | -24.1
Cn1c(C(O)c2ccc3c(c2)OCO3)nc2ccccc21 (centres unmarked) | 5.33
Oc1ccc(C=Nc2ccc3ncccc3c2)c(O)c1 | 5.21
CCOC(=O)CNC(=O)N1CCCC(C(=O)c2ccccc2SC)C1 (centres unmarked) | 8.47
Cc1cc(-c2nn(-c3ccccc3F)cc2CN2CCCC(O)C2)c(C)s1 (centres unmarked) | 0.993
O=C(COCc1nc2ccccc2c(=O)[nH]1)NCC1CCCCC1 | -11.9
Cn1nnnc1Sc1ncnc2scc(-c3ccc(C(F)(F)F)cc3)c12 | 16.9
Nc1ccc(-c2nc3ccccc3[nH]2)cc1 | 1.55
C=CCNC(=O)/C(C#N)=C/c1c(N(Cc2ccccc2)Cc2ccccc2)nc2ccccn2c1=O | 6.51
CC(NC(=S)N1CCN(c2ccccc2)CC1)c1ccccc1 (centres unmarked) | 8.9
Cc1cccc(Cn2c(SCC(=O)Nc3ccccc3)nc3c2c(=O)[nH]c(=O)n3C)c1 | 3.88
CCOC(=O)C(=Cc1cn(C)c2ccc(S(=O)(=O)N(C)C)cc12)C(=O)OCC | 9.35
Cc1ccc(S(=O)(=O)Nc2c(O)ccc3ccccc23)cc1 | 7.7
O=C(N/N=C/c1c(Nc2cccc(C(F)(F)F)c2)nc2ccccn2c1=O)c1ccccc1[N+](=O)[O-] | 8.51
COc1ccc(C2=NN(C(=O)CCC(=O)O)C(c3ccc(OC)cc3)C2)cc1 (centres unmarked) | 11.2
O=C(Cc1cccc(C(F)(F)F)c1)OCC(=O)N1CCN(S(=O)(=O)c2ccc(Cl)cc2)CC1 | -2.72
CCOc1ccccc1C1CC(=O)Nc2cc(C)c(C)cc21 (centres unmarked) | -12.8
CCOc1ccc(CCNC(=O)CCc2nc3ccccc3[nH]2)cc1OCC | 10.7
C=CCOc1c(Br)cc(CNn2c(C)n[nH]c2=S)cc1OCC | 12.9
Br.COc1ccc(-c2nc3n(c2Br)CCC3)cc1 | -3.59
COCCn1c(=O)[nH]c2cc(C(=O)Nc3nnc(C)s3)ccc21 | 6.88

SMILES | hERG current change (%, negative = inhibition) at 1uM [%]
CCCNC(=S)NCc1ccc(Cl)cc1 | 1.33
Cc1cc(OC(=O)c2cc(Cl)nc3ccccc23)ccc1Cl | 9.26
Cc1cc2sc(NC(=O)c3ccco3)nc2cc1Cl | 15
C=CCOc1ccc(C2C(C(=O)c3ccc(C)o3)=C(O)C(=O)N2Cc2cccnc2)cc1 (centres unmarked) | 13.3
COc1ccc(CCNC(=O)CCc2cc(OC)c(OC)c(OC)c2)cc1OC | 9.89
COc1ccc(NC(=O)c2cc(N3C(=O)C4C5CCC(C5)C4C3=O)ccc2Cl)c(OC)c1 (centres unmarked) | 9.88
O=C(COC(=O)c1cccc([N+](=O)[O-])c1)c1ccc(OCc2ccccc2)cc1 | 13.4
Cc1ccc(Cl)cc1NC(=S)N(Cc1cccnc1)Cc1ccccc1Cl | 8.98
Cc1ccc(S(=O)(=O)N(CC(=O)N(C(C)C)C(C)C)C(=O)N2CCN(C)CC2)cc1 | 15.1
O=C1C(NS(=O)(=O)c2cccs2)=C(N2CCOCC2)C(=O)c2ccccc21 | 7.19
CCN(CC)CCCN1C=C2C(=O)C(C)(OC(=O)CCC(=O)OC)C(=O)C(Br)=C2C=C1c1ccc(OC)cc1 (centres unmarked) | 10.3
CC(C)n1c(SCC(=O)Nc2nncs2)nnc1C1CC1 | 10.2
CCCCNc1c(N)n(CCCC)c(=O)[nH]c1=O | 0.0826
Cc1cc(C)c2c(=O)[nH]c(SCC(=O)c3ccc(C)c(C)c3)nc2n1 | -4.96
COc1ccc(/C=C/C(=O)Nc2cccc(S(=O)(=O)NC3=NCCCCC3)c2)cc1 | -3.48
Cc1cccc(NC(=O)c2ccc3c(c2)C(=O)N(c2ccccn2)C3=O)c1C | 10.6
C[C@@H]1CC=C[C@H]2[C@H]1C(=O)N(Cc1ccccc1)[C@H]2c1ccc(-c2ccc(N(C)C)cc2)cc1F | 8.33
S=C(NCC1CCCO1)Nc1ccccc1Cl (centres unmarked) | 9.9
COc1ccc(C(=O)Cn2ccsc2=NC(C)=O)cc1 | 7.84
N#C/C(=C\c1ccccc1)C(=O)NC(=O)Oc1ccccc1 | 13.6
COc1ccc(-c2nn3c(-c4ccccc4)nnc3s2)cc1OC | 2.33
CS(=O)(=O)N1CCN(C(=O)COc2ccccc2)CC1 | 13.7

SMILES | hERG current change (%, negative = inhibition) at 1uM [%]
COc1ccc(CC(CC(=O)O)C(=O)Nc2ccc(Cl)c(Cl)c2)cc1 (centres unmarked) | 13.5
O=C(CSc1n[nH]c(=O)n1C1CC1)Nc1cc(Cl)ccc1Oc1ccccc1 | -0.215
CCC(CC)C(=O)NCc1ccc(OC)cc1 | -2.13
CN(C)CCCN(C(=O)c1ccc(S(=O)(=O)N2CCc3ccccc3C2)cc1)c1nc2c(F)cc(F)cc2s1.Cl | -0.987
O=C(C1CCC(=O)N(C2CC2)C1)N1CCN(c2ccc(Cl)cc2)CC1 (centres unmarked) | -9.81
COCCCNC(=S)Nc1ccc2c(c1)OCCO2 | 1.06
COC(=O)c1ccccc1NC(=O)CN1CCC(NC(=O)c2ccccc2C)CC1 | -4.92
COc1ccccc1C(=O)Nc1sc(C(=O)N2CCCC2)c(C)c1C#N | 13.8
COc1ccc([C@@H]2CC=C(C(=O)O)[C@H](c3ccc(Cl)cc3)N2S(=O)(=O)c2ccc(C)cc2)cc1OC | 7.01
Cc1ccccc1OCCOc1ccc([N+](=O)[O-])cc1/C=N/n1cnnc1 | 13.6
COc1ccc(C)cc1S(=O)(=O)N(C)CC(=O)N1CCN(C)CC1 | 12
CN(Cc1cnn(C)c1)Cc1nc(-c2ccc(Cl)cc2)no1 | 8.9
Cn1c(=O)[nH]c(=O)c2c1nc(Sc1ccccc1)n2CCc1ccccc1 | 17
CCOC(=O)N1CCN(c2nc(C)c3c(n2)CC(C)CC3=O)CC1 (centres unmarked) | 18.1
COc1cc(-n2c(=O)c3ccccc3n(CC(=O)c3ccccc3)c2=O)cc(OC)c1OC | 14.7
NCCNc1ccc([N+](=O)[O-])c(NC2CC2)c1 | 1.59
O=C(c1ccc(Cn2c(=S)[nH]c3ccc(Br)cc3c2=O)cc1)N1CCN(C2CCCCC2)CC1 | 12.7
COc1ccc(C(C(=O)NC2CCCCC2)N(C(=O)c2csnn2)C2CC2)cc1 (centres unmarked) | -3.64
Cc1cc(NC(=O)c2cc(C3CC3)on2)no1 | 19
C=CC1CN2CCC1CC2C(OC(C)=O)c1ccnc2ccc(OC)cc12 (centres unmarked) | 1.56
